Assay results published in publication PMC10338342, “Cooperation between bHLH transcription factors and histones for DNA access” (Nature, 2023).

Molecular target: the molecule itself
Experiment: cryo-EM structure; MAX-MAX homodimer on a nucleosome with an E-box at SHL+5.1 (1:3), GraFix cross-linked; 6.2 Å overall, 10–15 Å for MAX-MAX

B1: MAX-MAX homodimer (human MAX […]) (complex)
chain: not shown
notes: MAX, human, […]; also called MAX-MAX bHLH LZ; source: E. coli, purified (Strep-Tactin, Superdex 200 Increase)
binding result: binds
